Experimental findings from PMC4336329 (PLoS ONE, 2015) are described below.

Out of some 310,000 compounds screened, about 14,000 (4.5%) showed an effect of 50% or more. Effects have a minus sign here. The list shows a part of the results.
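Further: peak tail current of the secondary pulse compared with the same well before compound.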

The target in the assay is human ether-à-go-go-related gene (hERG) potassium channel (human, UniProt Q12809). Description: primary screen, population patch clamp on CHO cells stably expressing hERG.
Chain of human ether-à-go-go-related gene (hERG) potassium channel (Q12809 whole entry, looked up): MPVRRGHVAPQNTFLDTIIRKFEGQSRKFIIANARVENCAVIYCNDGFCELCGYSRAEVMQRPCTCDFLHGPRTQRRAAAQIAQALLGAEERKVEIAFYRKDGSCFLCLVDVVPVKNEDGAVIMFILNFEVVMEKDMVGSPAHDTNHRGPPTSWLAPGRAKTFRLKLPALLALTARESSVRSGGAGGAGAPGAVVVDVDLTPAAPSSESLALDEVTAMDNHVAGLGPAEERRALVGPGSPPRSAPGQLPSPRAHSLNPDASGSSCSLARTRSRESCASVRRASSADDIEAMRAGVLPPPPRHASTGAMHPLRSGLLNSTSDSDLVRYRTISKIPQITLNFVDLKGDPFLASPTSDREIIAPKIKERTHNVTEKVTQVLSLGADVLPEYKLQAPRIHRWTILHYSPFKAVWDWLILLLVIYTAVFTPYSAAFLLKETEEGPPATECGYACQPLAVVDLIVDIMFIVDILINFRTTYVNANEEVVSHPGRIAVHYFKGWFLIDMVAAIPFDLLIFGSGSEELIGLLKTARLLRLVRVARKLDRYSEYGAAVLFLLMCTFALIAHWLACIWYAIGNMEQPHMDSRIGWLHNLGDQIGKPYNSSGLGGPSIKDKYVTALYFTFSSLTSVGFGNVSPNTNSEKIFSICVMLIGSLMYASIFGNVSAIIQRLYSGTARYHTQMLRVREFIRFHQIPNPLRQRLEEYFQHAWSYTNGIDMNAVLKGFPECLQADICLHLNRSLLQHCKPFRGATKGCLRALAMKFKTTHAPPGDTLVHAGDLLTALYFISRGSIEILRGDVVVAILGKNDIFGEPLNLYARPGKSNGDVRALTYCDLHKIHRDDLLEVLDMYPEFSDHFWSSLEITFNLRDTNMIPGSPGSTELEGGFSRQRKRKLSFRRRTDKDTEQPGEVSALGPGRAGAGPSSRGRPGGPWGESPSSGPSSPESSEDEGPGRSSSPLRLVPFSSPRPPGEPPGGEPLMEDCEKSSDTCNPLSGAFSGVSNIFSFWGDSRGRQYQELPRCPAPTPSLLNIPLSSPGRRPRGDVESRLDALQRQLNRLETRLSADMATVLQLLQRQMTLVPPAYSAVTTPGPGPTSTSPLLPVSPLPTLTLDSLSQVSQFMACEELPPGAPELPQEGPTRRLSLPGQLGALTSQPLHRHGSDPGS
As to `Clc1ccc(SCc2cc(-c3ccccc3)no2)cc1`, the “hERG current change (%, negative = inhibition) at 10uM” value is reported as -5.94%. The same measure for `COc1ccc(C(CNC(=O)Cc2ccccc2)N2CCCCC2)cc1` (stereo not shown): -1.26%; for `CCc1cc(C(=O)OC)c(NC(=O)CN2CCN(C(=O)C3CCCO3)CC2)s1` (stereo not shown): -47.2%; for `CCN(Cc1cccc(OC)c1)CC1CCCN(CCc2cccc(OC)c2)C1` (stereo not shown): -47.3%. With `c1ccc(C(Cc2nc(-c3cccnc3)no2)c2ccccc2)cc1` the figure was 16.9%. `S=C1NCN(Cc2ccccc2)CN1`: the “hERG current change (%, negative = inhibition) at 10uM” value is listed as 5.01%. The same measure for `COc1ccc(C(=O)COC(=O)c2ccc(NC(C)=O)cc2)cc1[N+](=O)[O-]`: 0.979%; for `N#Cc1c(NC(=O)C2CC(Cl)=CCC2C(=O)O)sc2c1CCCCC2` (stereo not shown): -25.8%; for `CCOC(=O)C1CCCN(Cc2nc(C3CC3)no2)C1` (stereo not shown): 13.5%. For `COc1cc(OC)cc(C(=O)NC(=S)N2CCCCCC2)c1`, the “hERG current change (%, negative = inhibition) at 10uM” value was found to be 13.3%. With `Cc1c(C(=O)Nc2cccc([N+](=O)[O-])c2)cnn1-c1ccccc1` the figure was -12.7%. On to `CC1CC2(C)CC(C)C1(COC(=O)Nc1ccccc1)CO2` (stereo not shown), for which the “hERG current change (%, negative = inhibition) at 10uM” value is listed as 5%. The same measure for `N#Cc1ccc(-c2ccc(OCC(=O)NCCc3ccccc3)cc2)cc1`: 9.16%; for `O=C(c1cc(C2CC2)nn1-c1ccccc1)N1CCN(Cc2ccc(Cl)cc2)CC1`: -32.1%; for `O=C(COC(=O)c1ccccc1O)Nc1ccc(S(=O)(=O)N2CCCCC2)cc1`: 3.29%. With `CCOC(=O)C1CCN(c2cc(=O)n(-c3ccc(OC)cc3)c(=O)[nH]2)CC1` the figure was 6.19%; with `NC(=O)c1ccsc1NC(=O)COC(=O)c1cc(Cl)ccc1O`, -2.09%.

As for `COc1ccccc1NC(=O)COC(=O)c1ccc([N+](=O)[O-])s1`, the “hERG current change (%, negative = inhibition) at 10uM” value is -3.31%. The same measure for `CNc1ccc(Br)cc(C(=O)/C=C/c2cccc(OC)c2OC)c1=O`: -11.2%. Consider `CCOC(=O)c1c(NC(=O)CN2CCCc3ccccc32)sc(C(C)=O)c1C`, for which the “hERG current change (%, negative = inhibition) at 10uM” value is on record as 5.24%. The same measure for `CN(C)c1ccc(/C=N/NC(=O)CCCCCNC(=O)c2ccccc2)cc1`: -18.6%; for `O=C(c1cc(-c2ccco2)on1)N1CCCc2ccccc21`: 5.89%; for `Cc1ccc(NC(=O)/C(=C/c2cccs2)NC(=O)c2ccco2)c(C)c1`: -9.56%. The same measure for `O=C(Cn1cc2c(n1)CCCC2)NCCc1ccccc1`: 2.36%.

As for `O=C(O)c1ccccc1OC(=O)C12CC3CC(CC(C3)C1)C2`, the “hERG current change (%, negative = inhibition) at 10uM” value is listed as 18.1%.

Regarding `CCCCc1ccc(-c2ccc(C)cc2O)nc1`, the “hERG current change (%, negative = inhibition) at 10uM” value is given as -18.3%.

With `CC(=O)Nc1ccc(C(=O)OCC(=O)c2ccc(S(=O)(=O)N3CCCCC3)cc2)cc1`, the “hERG current change (%, negative = inhibition) at 10uM” value was determined as 2.62%. With `COc1cc2c(-c3ccc(O)cc3)nc3c(c(C)nn3-c3ccccc3)c2cc1OC` the figure was 11.5%; with `Cc1ccsc1C(=O)Nc1nc2ccccc2[nH]1`, 4.88%. The same measure for `O=C(N/N=C/c1ccccc1C(=O)O)C(=O)N1CCCCC1`: 18.2%; for `COc1ccc(NC(=O)CCOc2ccc(C)cc2)cc1S(=O)(=O)N1CCCCC1`: -24.2%. With `Cc1ccc2cc(C#N)c(NCc3ccco3)nc2c1` the figure was 9.87%; with `COc1ccc(/C=N/NC(=O)CCSc2nc3ccccc3s2)cc1OC`, -12.8%; with `O=C(COC(=O)c1ccc2ncsc2c1)NC(=O)c1ccccc1`, 23.7%. With `CCN1C(=NCCc2cccs2)N[C@@H](c2cccs2)C(C(=O)OC)=C1C`, the “hERG current change (%, negative = inhibition) at 10uM” value is -64.2%. Take `CSCC[C@H](NC(=O)C1CCC(CNC(=O)[C@@H]2CCCN2)CC1)C(=O)O.Cl` (stereo partly shown): the “hERG current change (%, negative = inhibition) at 10uM” value turned out to be 9.86%. With `Cc1cc2c(c(SCC(=O)N(C)c3ccccc3)n1)C(=O)OC2` the figure was 2.8%; with `CSc1nnc(-c2ccccc2)o1`, -5.33%; with `CCOC(=O)N=Nc1c(O)n(CC)c2ccccc12`, -1.8%. On to `COc1ccc(C(=O)NNC2CC(=O)N(Cc3ccccc3)C2=O)cc1OC` (stereo not shown), for which the “hERG current change (%, negative = inhibition) at 10uM” value is on record as -9.35%. For the compound `CC(=O)c1c(C)nc(-c2ccc(OCC(=O)Nc3ccccc3)cc2)n1O`, the “hERG current change (%, negative = inhibition) at 10uM” value came to 9.07%.

Take `COc1ccccc1CNC(=O)COC(=O)c1cc(=O)[nH]c2ccccc12`: the “hERG current change (%, negative = inhibition) at 10uM” value amounted to 1.03%. For `Cc1nnc(C)n1/N=C/c1ccccn1`, the “hERG current change (%, negative = inhibition) at 10uM” value is recorded as -24.8%. With `COc1ccc(CCN(C)C(=O)c2c(C)nn(-c3ccccc3)c2C)cc1OC` the figure was 17.7%; with `Cc1ccc(OCC(=O)N2CCCCCC2)c(C)c1`, 4.77%. For `COc1ccc(N2CCN(C(CNS(=O)(=O)c3cc(F)ccc3F)c3cccnc3)CC2)cc1` (stereo not shown), the “hERG current change (%, negative = inhibition) at 10uM” value is -69%. Consider `O=C(CSc1nnc(COc2ccc(Cl)cc2)o1)OC1CCCCC1`, for which the “hERG current change (%, negative = inhibition) at 10uM” value was found to be 3.24%. The same measure for `C=CCn1c(SCC(=O)N2CCOCC2)nc(O)c(Cc2ccccc2)c1=O`: 15.4%; for `COc1ccc(CCNc2ccc(S(=O)(=O)N3CCCC3)cc2[N+](=O)[O-])cc1`: 6.78%; for `CC(C)CC(=O)NNC(=S)Nc1ccc(S(N)(=O)=O)cc1`: 16.7%. With `Cc1nc(C(=O)NNC(=O)c2ccc(C(F)(F)F)cc2)cs1` the figure was 3.56%; with `CSc1ccc(CN2CCN(C3CCCC3)C(CCO)C2)cc1` (stereo not shown), -53.8%; with `O=C(NCc1ccccn1)c1ccc(NC(=O)c2ccco2)cc1`, -0.238%. The same measure for `O=C(NCc1ccco1)c1cc(S(=O)(=O)N2CCOCC2)ccc1Cl`: -24.4%; for `CC(=O)Nc1ccc(S(=O)(=O)NCCCN2CCN(Cc3ccccc3)CC2)cc1Cl`: -18.9%; for `CC(=O)Nc1ccc(Nc2nc(C(F)(F)F)nc3c2nnn3Cc2ccccc2Cl)cc1`: 14.9%. Consider `NC(=O)CSc1ncc(-c2ccccc2)[nH]1`, for which the “hERG current change (%, negative = inhibition) at 10uM” value is 13.3%. With `CC(C)(Sc1cc(C(C)(C)C)c(O)c(C(C)(C)C)c1)Sc1cc(C(C)(C)C)c(O)c(C(C)(C)C)c1` the figure was 22%.
